The record followed here is the supplement of paper PMC10126150.

Sequences with one replicate were seen in a single cluster, so their values are uncertain.

For the data set, the system named is ATP. Nature of the data set: switch fluorescence ratio, 500 uM ATP over buffer (Cy3 cluster intensity, sum of 5 cycles each) (fold (ratio)); higher = stronger signal-on switching upon ATP binding; sequences stand for … in TCGTCGGCAGCGTCAGATGTGTATAAGAGACAGTTTTTTTTTTTTTTTTTTTTTTTTT…TC. Conditions: aptamer strand: ATP DNA aptamer (quencher-CACCTGGGGGAGTATTGCGGAGGAAGG + anchor), 100 nM annealed; ATP concentration: 500 uM; one replicate. The method in brief: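 Values give the fluorescence ratio for each switch-domain sequence, averaged from per-cluster ratios of summed target-cycle to summed buffer-cycle Cy3 intensity. The Cy3-labelled switching-strand clusters sat on a modified Illumina MiSeq flow-cell, were annealed to 100 nM quencher-labelled ATP aptamer, and were imaged in selection buffer, then after 15 min with 500 uM ATP at 22 °C. Five cycles ran with NaOH stripping and re-annealing between them, and clusters outside 100-1000 RFU were excluded.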
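Also: ATP exposure 15 min at 22 °C before imaging.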

As for GGGACAGCGA, the switch fluorescence ratio came to 1.08. The result for GGCGGGTATC reads 0.967; that for CGCGTACAGC, 1.06; that for GGAAAGCTAC, 1.35. The result for TGAGGGTTAG reads 1.03; that for CCCGAACCTG, 1.07. As for TACAAGGCAC, the switch fluorescence ratio is 1.07. For the sequence TCGATTCCGA, the switch fluorescence ratio was 1. As to ACTTTTCATA, the switch fluorescence ratio amounted to 1.01. The figure for AAGCCTTAGA is 1.03; for CGATTGCGCA it is 0.975. The result for TCGCAATGAG reads 4.73; that for TTCGGTTACT, 0.997; that for CGTATAAGC, 0.987. On to GTTAGTGAAG, for which the switch fluorescence ratio was determined as 0.963. The figure for ACGCAACCTA is 1.38; for GGGTCCTGGT it is 0.942. Turning to GGAGATCGTC, the switch fluorescence ratio was found to be 0.956. The result for AAACAACTCA reads 0.947; that for TGATAAACGA, 1.17; that for AGCTCACGTC, 1.12. The result for AAAATCTTTT reads 1.04; that for TAATGGTGCC, 1.02. Take TCGGTAAAAA: the switch fluorescence ratio came to 1.01.

Take GCTTTTACCA: the switch fluorescence ratio amounted to 0.951.

As to AATTTACCT, the switch fluorescence ratio was found to be 1.18. Consider CCTGTGAGGC, for which the switch fluorescence ratio is 1.1. The figure for CCTCTGGGCT is 1.38.

ACGTTTCAGG: the switch fluorescence ratio is 1.07. In the case of TCGTTGGCTG, the switch fluorescence ratio came to 0.961. With GTGGTCTTGC, the switch fluorescence ratio came out at 0.997. In the case of CCGCGGCGCT, the switch fluorescence ratio amounted to 1.26.

With CCAAGTGAAG, the switch fluorescence ratio came out at 0.971. Take TAGGATGGGA: the switch fluorescence ratio came out at 0.942.

With ATCGCAACGA, the switch fluorescence ratio was found to be 1.08. The result for AAACTGGTTC reads 1.01; that for CTTGTAACGA, 0.965; that for ACGGGCACGG, 1.09. On to CCTGTGGTTT, for which the switch fluorescence ratio came to 1.01. As to GTAAGGGTTC, the switch fluorescence ratio was found to be 0.952. The result for ATACTATCGT reads 1.02; that for AACGACGACT, 1.08. Regarding TGGGTCAAGT, the switch fluorescence ratio was 0.989. The result for GATCGTCCTT reads 0.99. CGCGTCTACC: the switch fluorescence ratio is 1.18. Regarding TGCGCAAAGC, the switch fluorescence ratio is 1.25.

For ACTTTAGGAC, the switch fluorescence ratio is 1.01.

Take GTAATGGCAC: the switch fluorescence ratio was 1.04. Regarding GTAGCCAGGT, the switch fluorescence ratio was determined as 1.13.

Turning to CTGGTTCAAC, the switch fluorescence ratio was found to be 0.948. For TATGAAAGTT, the switch fluorescence ratio amounted to 0.962.

Turning to GGTAACATTC, the switch fluorescence ratio turned out to be 1.03. With TCAGTAGATT, the switch fluorescence ratio is 1.01.

Take AGTTAAGTAA: the switch fluorescence ratio amounted to 0.989. The result for AGACCGCGGC reads 0.968.

Consider AGATGGTGTA, for which the switch fluorescence ratio stood at 0.967. The result for TATCTGCGTG reads 0.973; that for GAAAAGTACT, 1.06; that for GATCCCAGTT, 1.04.

CGGTATTCTA: the switch fluorescence ratio is 1. The result for AAAACGAAAG reads 1.04. The figure for CCGTGGCATC is 4.9; for AGAATAAGAA it is 1.03. The figure for GAGGTATATG is 1.02; for TAGGATTC it is 1.05; for TCTGCATGCG it is 1.08. On to TGGGTCAACA, for which the switch fluorescence ratio was determined as 0.98.
